In PubChem BioAssay AID686978 (National Center for Advancing Translational Sciences (NCATS), 2013):
In all, about 420,000 compounds went through this assay and about 64,000 (15%) were called active. Inconclusive results, whose numbers are uncertain, are shown with a selection of clear calls. Calls follow the shape of the dose curve; as a rule, active = well fitted inhibition curve with a large enough effect; inconclusive = small, poorly fitted or top-dose-only effect; inactive = flat fitted curve, though single readings scatter. Potencies of inconclusive entries are left out as doubtful fits.

Experiment: qHTS for Inhibitors of human tyrosyl-DNA phosphodiesterase 1 (TDP1): qHTS in cells in absence of CPT; also: nearly all actives have a fitted effect of over 55% in size
Conditions: DT40 Tdp1-/- hTDP1 cells, no CPT, ATP luminescence, 48 h; activity change, negative = growth inhibition: at 46.2 µM (top of the series) unless noted
Method in brief: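 Camptothecin absent (DMSO only). Human TDP1-complemented DT40 knockout cells, 400 cells/well, 37 °C for minimum 48 hr; ATP measured via CellTiter-Glo, 30 min dark incubation, luminescence.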
% is scaled to controls: 0 for no effect and ±100 for the full control effect; potency is read from the fitted curve at half-maximal effect; tags tell the direction and shape of the fitted curve.

Row | SMILES | Potency | activity change, negative = growth inhibition
1 | CCOc1ccc(N(C(=O)c2snc(C(N)=O)c2N)C(C(=O)NCC2CCCO2)c2ccco2)cc1 (configuration not stated) | inconclusive [inhibitor, single point] | 
2 | Cc1nnc2ccc(-c3cccc(NS(=O)(=O)c4ccccc4[N+](=O)[O-])c3)nn12 | active: 14.6 µM | 
3 | COc1cc(NC(=O)Nc2cccc(Cl)c2)c(OC)cc1NC(=O)CN1CCCCC1 | inconclusive [inhibitor, single point] | 
4 | COc1ccc(/C=C/C(=O)N2CCCc3ccccc32)cc1 | active: 23.1 µM | 
5 | CNC(=S)NNC(=O)c1cccn(Cc2ccccc2)c1=O | inactive | 
6 | CCCN1CCC(NC(=O)Cc2ccccc2OC)CC1 | inactive | 
7 | Cc1cc(NC(=O)NC(=O)c2ccc(F)cc2F)n[nH]1 | inconclusive [inhibitor, partial curve, poor fit] | 
8 | COc1ccc(N2CCN(C(=O)CSc3nnc(-c4cc5ccccc5cc4O)n3C)CC2)cc1 | active: 18.4 µM | 
9 | CC(OC(=O)c1ccc([N+](=O)[O-])o1)C(=O)NC1CCCCC1C (configuration not stated) | inactive | 
10 | CN(C)S(=O)(=O)c1cccc(NC(=O)c2cncc(Br)c2)c1 | inconclusive [inhibitor, partial curve] | 
11 | CCN(CC)S(=O)(=O)c1cccc(-c2nnc(SCCOc3ccccc3)o2)c1 | active: 20.6 µM | 
12 | O=C(CSc1nccn1-c1ccccc1)Nc1ccc2c(c1)OCO2 | inconclusive [inhibitor, partial curve] | 
13 | Cc1cccc(N2CCN(c3ccc(N4C(=O)CCCC4=O)cc3[N+](=O)[O-])CC2C)c1 (configuration not stated) | inconclusive [inhibitor, single point] | 
14 | Cc1ccc(-c2nnn3c2nc(NCCc2ccccc2)c2ccccc23)cc1 | inactive | 
15 | CC(C)(C)c1cc(C(=O)NCCN2CCCC2)cc(C(C)(C)C)c1 | inconclusive [inhibitor, single point] | 
16 | O=C1CN(C(=O)c2c(F)cccc2F)C(c2ccccc2)c2cc(Br)ccc2N1 (configuration not stated) | inconclusive [inhibitor, single point] | 
17 | COc1ccc(C(=O)CC(=O)c2ccc(C)cc2)c(O)c1 | inconclusive [inhibitor, single point] | 
18 | COCCCn1cnnc1SC(C)C(=O)Nc1ccc(S(=O)(=O)N2CCOCC2)cc1 (configuration not stated) | inactive | 
19 | Cc1cc(Br)cn2c(Cc3cccc(F)c3)c(-c3ccc(F)cc3)nc12 | inconclusive [inhibitor, single point] | 
20 | C/C(=N\Nc1ccccn1)c1ccc(N2CCOCC2)cc1 | inconclusive [inhibitor, single point] | 
21 | CN1OC[C@@H]2CN(S(=O)(=O)c3cccc4ccccc34)[C@H](c3ccc(-c4cccnc4)cc3)C[C@@H]21 | active: 18.4 µM | 
22 | Cc1ccc(CSC(Nc2ccc(F)cc2)=C(C#N)C#N)cc1 | active: 3.26 µM | 
23 | CCSc1nnc(NC(=O)c2csc3c2CCCC3)s1 | inconclusive [inhibitor, single point] | 
24 | O=C(CSc1nnc(-c2cccnc2)n1CCc1ccccc1)NCc1ccccc1 | inactive | 

Row | SMILES | Potency | activity change, negative = growth inhibition
25 | Cc1ccc(/C=C/C(=O)NCc2cccs2)o1 | inconclusive [inhibitor, single point] | 
26 | O=C(CCS(=O)(=O)Cc1ccc(Cl)cc1)NCCCN1CCN(c2ccccc2F)CC1 | inconclusive [inhibitor, single point] | 
27 | Cc1ccc2sc(N(CCCN(C)C)C(=O)c3ccc(S(=O)(=O)N(C)C)cc3)nc2c1C | inactive | 
28 | N#Cc1ccc(N)cc1OCCCN1CCCCC1 | inactive | 
29 | COc1cccc(Nc2nc3ccc(OC)cc3s2)c1 | inconclusive [inhibitor, single point] | 
30 | O=C(N/N=C/C(Br)=C\c1ccccc1)c1cccs1 | active: 13 µM | 
31 | COc1ccc(NC(=O)CSCC(=O)N(C)CC(=O)Nc2ccc(Cl)c(C(F)(F)F)c2)cc1 | inconclusive [inhibitor, partial curve] | 
32 | Cc1ccc(C)c(C(=O)CSc2nc(-c3ccccc3)nc3c2CCCC3)c1 | inconclusive [inhibitor, single point] | 
33 | COc1ccc(C2=Nn3c(nnc3C(F)(F)F)SC2)cc1 | inconclusive [inhibitor, partial curve] | 
34 | Cc1cc(C(=O)Nc2ccc3c(c2)OCCO3)c(C)o1 | inconclusive [inhibitor, partial curve, poor fit] | 
35 | O=C(NCC[C@@H]1CC[C@@H](NS(=O)(=O)c2ccccc2)[C@@H](CO)O1)c1cc(Cl)cc(Cl)c1 | inconclusive [inhibitor, single point] | 
36 | COc1ccc(CCN2CN(S(=O)(=O)c3ccc(OC)cc3)c3nc4ccccc4nc32)cc1 | inconclusive [inhibitor, partial curve] | 
37 | O=C(CSc1nc2ccccc2c(=O)n1-c1ccc(F)c(Cl)c1)Nc1cccc(S(=O)(=O)N2CCOCC2)c1 | inconclusive [inhibitor, partial curve] | 
38 | COc1cc(/C=N/NC(=O)NC23CC4CC(CC(C4)C2)C3)ccc1O | inconclusive [inhibitor, single point] | 
39 | O=C(c1ccc([N+](=O)[O-])cc1)N(Cc1ccco1)c1ccccn1 | inactive | 
40 | S=c1ccc2ccccc2[nH]1 | inconclusive [inhibitor, partial curve] | 
41 | O=c1c2ccccc2nnn1COc1cccc(Cl)c1 | active: 18.4 µM | 
42 | COc1ccc(-c2ccc(C(=O)Nc3ccc(Cl)cc3)c3occc23)c(C)c1 | inconclusive [inhibitor, single point] | 
43 | Cc1cccc(NC(=O)CCc2nc3sc4c(c3c(=O)[nH]2)CCCC4)c1 | inconclusive [inhibitor, partial curve] | 
44 | N#C/C(=C\c1ccncc1)c1ccccn1 | inconclusive [inhibitor, single point] | 
45 | CCOC(=O)c1oc2ccccc2c1CSc1nnc(-c2ccco2)o1 | inconclusive [inhibitor, single point] | 
46 | CC(C)OC(=O)/C(C#N)=C/c1ccc(-c2ccc(SC(F)F)cc2)o1 | inconclusive [inhibitor, single point] | 
47 | Cc1cc(C(=O)COc2ccc(Cl)cc2Br)c(C)n1C | inconclusive [inhibitor, partial curve] | 
48 | CCOC(=O)c1sc2nc(Cc3ccc(Cl)cc3)[nH]c(=S)c2c1C | inconclusive [inhibitor, partial curve, poor fit] | 

Row | SMILES | Potency | activity change, negative = growth inhibition
49 | CCCN1CN(c2ccccc2)C(=S)N(c2ccccc2)C1 | inconclusive [inhibitor, single point] | 
50 | COc1ccc(S(=O)(=O)N(CC(=O)N2CCN(c3ccccc3OC)CC2)c2ccccc2)cc1 | active: 11.6 µM | 
51 | CCOC(=O)N1CCC(=NNc2ccc(S(=O)(=O)N3CCOCC3)cc2[N+](=O)[O-])CC1 |  | inconclusive: -32.4% [inhibitor]
52 | CCCCn1c(=O)c2oc3ccccc3c2n(Cc2ccc(OC)cc2)c1=O | inconclusive [inhibitor, partial curve, poor fit] | 
53 | Cc1ccccc1NC(=O)CSc1nnc2ccc(-c3cccnc3)nn12 | inactive | 
54 | Cc1cc(C)nc(N/N=C/C2=C(O)CC(c3ccc(F)cc3)CC2=O)n1 (configuration not stated) | active: 9.2 µM | 
55 | OC(c1cc(Cl)cc(Cl)c1)c1ncc(-c2ccccc2F)[nH]1 (configuration not stated) | inconclusive [inhibitor, single point] | 
56 | O=c1[nH]c(/C=C/c2ccccn2)nc2ccccc12 | inconclusive [inhibitor, single point] | 
57 | c1ccc(CN2CCN(c3nc(-c4ccccc4)nc4ccccc34)CC2)cc1 | inconclusive [inhibitor, single point] | 
58 | CN1CCCCCC1=Nc1ccc([N+](=O)[O-])cc1 | inactive | 
59 | COc1ccc(NC(=O)c2ccc(NC(=O)CN3CCN(c4ccccc4)CC3)cc2)cc1 | inactive | 
60 | Cc1cccc(C)c1NC(=O)C(c1ccccc1)N1CC(=O)Nc2ccccc21 (configuration not stated) | inactive | 
61 | COc1cc(/C=N/NC(=O)c2cccnc2)ccc1OS(=O)(=O)c1cc(C)ccc1C | active: 23.1 µM | 
62 | Cc1ccccc1C(=O)Nn1cnc2ccccc2c1=O | inactive | 
63 | CCN(CC)CCC(c1ccc2c(c1)OCO2)c1c(O)cc(OC)cc1OC (configuration not stated) | active: 18.4 µM | 
64 | CCOC(=O)c1ccc(NC(=O)c2nc[nH]c2C(=O)N[C@H](C)CO)cc1 | inactive | 
65 | O=C(CCc1ccc(S(=O)(=O)N2CCOCC2)cc1)OCC(=O)c1ccccc1 | inactive | 
66 | CN(C)S(=O)(=O)c1cccc(NC(=O)COC(=O)c2cc(=O)[nH]c(=O)[nH]2)c1 | inactive | 
67 | Cn1c(C(=O)NCC2CCCO2)cc2oc3ccccc3c21 (configuration not stated) | inconclusive [inhibitor, single point] | 
68 | COc1ccc(S(=O)(=O)Nc2ccc3c(c2)sc(=O)n3C)cc1Cl | active: 18.4 µM | 
69 | CCN(c1ccccc1)S(=O)(=O)c1ccc(OC)c(NC(=O)CCc2nc3ccccc3c(=O)[nH]2)c1 | active: 14.6 µM | 
70 | CC(=O)Nc1ccc(C(=O)N/C(=C/c2ccccc2)C(=O)N2CCCCC2)cc1 | inactive | 
71 | CCN1C/C(=C/c2ccc(OC)c(O)c2)C(=O)/C(=C/c2ccc(OC)c(O)c2)C1 | active: 11.6 µM | 
72 | COc1ccccc1CNC(=O)c1ccc(-c2nc(CS(=O)c3ccc(C)cc3)c(C)o2)cc1 (configuration not stated) | active: 13 µM | 
